# Publication PMC12820563, “FoxP3 forms a head-to-head dimer in vivo and stabilizes its multimerization on adjacent microsatellites”
# The list shows a part of the results.
# Biological target: T1, MBP-FoxP1dN (Mus musculus, UniProt P58462 326-579)
# T1 sequence: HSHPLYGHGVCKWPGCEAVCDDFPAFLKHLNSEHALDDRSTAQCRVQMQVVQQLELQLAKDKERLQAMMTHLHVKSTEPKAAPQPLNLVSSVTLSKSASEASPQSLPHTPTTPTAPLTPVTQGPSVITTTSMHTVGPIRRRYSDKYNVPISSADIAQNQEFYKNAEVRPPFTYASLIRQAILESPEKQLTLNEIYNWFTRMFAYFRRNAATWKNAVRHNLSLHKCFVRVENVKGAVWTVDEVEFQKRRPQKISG
# Experiment: PD-seq (MBP pull-down with sequencing); 20 mM Tris-HCl pH 7.5, 100 mM NaCl, 1.5 mM MgCl2, 0.4 uM protein, 0.1 uM dsDNA library, 30 min, room temperature, amylose pull-down; high values mean tight binding
# Details: protein: recombinant; tags: His6-MBP; chain copies: 2; dsDNA, one strand shown
# Procedure, shortened: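 In Tris pH 7.5 buffer with NaCl and MgCl2, 0.4 µM His6-MBP-tagged mouse FoxP3 or FoxP1 fragment lacking the N-terminus, from E. coli, met 0.1 µM Klenow-filled double-stranded degenerate DNA library for 30 min at room temperature. Three washes on amylose resin followed capture of the complexes, then proteinase K release of DNA, PCR barcoding and Illumina sequencing. Binding is taken as pooled-replicate reads-per-million enrichment of pull-down relative to input.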
row,Sequence,binding signal
1,GATGATTGTTCTCCCAGCTGATGAATTACACGCGTCGAGTAAACAAATTTTCCTAATCTTTCTGTTCAAGCGCCATCTAC,1.18 RPM ratio (pull-down/input)
2,GATGATTGTTCTCCCAGCTGATGAATTCCGCTTTTCGAGTAAACAAATTTTCCTAATCTTTCTGTTCAAGCGCCATCTAC,0.9 RPM ratio (pull-down/input)
3,GATGATTGTTCTCCCAGCTGATGAATTATAAGTATCGAGTAAACAAATTTTCCTAATCTTTCTGTTCAAGCGCCATCTAC,1.19 RPM ratio (pull-down/input)
4,GATGATTGTTCTCCCAGCTGATGAATTCATATTGTCGAGTAAACAAATTTTCCTAATCTTTCTGTTCAAGCGCCATCTAC,1.9 RPM ratio (pull-down/input)
5,GATGATTGTTCTCCCAGCTGATGAATTTGAACTGTCGAGTAAACAAATTTTCCTAATCTTTCTGTTCAAGCGCCATCTAC,0.807 RPM ratio (pull-down/input)
6,GATGATTGTTCTCCCAGCTGATGAATTACCGATCTCGAGTAAACAAATTTTCCTAATCTTTCTGTTCAAGCGCCATCTAC,0.951 RPM ratio (pull-down/input)
7,GATGATTGTTCTCCCAGCTGATGAATTGAGCCAATCGAGTAAACAAATTTTCCTAATCTTTCTGTTCAAGCGCCATCTAC,0.937 RPM ratio (pull-down/input)
8,GATGATTGTTCTCCCAGCTGATGAATTTCAAGAATCGAGTAAACAAATTTTCCTAATCTTTCTGTTCAAGCGCCATCTAC,0.984 RPM ratio (pull-down/input)
9,GATGATTGTTCTCCCAGCTGATGAATTACCGAGGTCGAGTAAACAAATTTTCCTAATCTTTCTGTTCAAGCGCCATCTAC,0.885 RPM ratio (pull-down/input)
10,GATGATTGTTCTCCCAGCTGATGAATTTATGACCTCGAGTAAACAAATTTTCCTAATCTTTCTGTTCAAGCGCCATCTAC,0.986 RPM ratio (pull-down/input)
11,GATGATTGTTCTCCCAGCTGATGAATTTCGGATGTCGAGTAAACAAATTTTCCTAATCTTTCTGTTCAAGCGCCATCTAC,0.824 RPM ratio (pull-down/input)
12,GATGATTGTTCTCCCAGCTGATGAATTTTCCCGATCGAGTAAACAAATTTTCCTAATCTTTCTGTTCAAGCGCCATCTAC,0.852 RPM ratio (pull-down/input)
13,GATGATTGTTCTCCCAGCTGATGAATTTCAACCGTCGAGTAAACAAATTTTCCTAATCTTTCTGTTCAAGCGCCATCTAC,0.768 RPM ratio (pull-down/input)
14,GATGATTGTTCTCCCAGCTGATGAATTTTCATGCTCGAGTAAACAAATTTTCCTAATCTTTCTGTTCAAGCGCCATCTAC,0.884 RPM ratio (pull-down/input)
15,GATGATTGTTCTCCCAGCTGATGAATTAATTATCTCGAGTAAACAAATTTTCCTAATCTTTCTGTTCAAGCGCCATCTAC,1.01 RPM ratio (pull-down/input)
16,GATGATTGTTCTCCCAGCTGATGAATTTAGAGGCTCGAGTAAACAAATTTTCCTAATCTTTCTGTTCAAGCGCCATCTAC,1.21 RPM ratio (pull-down/input)
17,GATGATTGTTCTCCCAGCTGATGAATTTTCTAATTCGAGTAAACAAATTTTCCTAATCTTTCTGTTCAAGCGCCATCTAC,1.05 RPM ratio (pull-down/input)
18,GATGATTGTTCTCCCAGCTGATGAATTTGCCAATTCGAGTAAACAAATTTTCCTAATCTTTCTGTTCAAGCGCCATCTAC,1.01 RPM ratio (pull-down/input)
19,GATGATTGTTCTCCCAGCTGATGAATTGTACTCTTCGAGTAAACAAATTTTCCTAATCTTTCTGTTCAAGCGCCATCTAC,1.08 RPM ratio (pull-down/input)
20,GATGATTGTTCTCCCAGCTGATGAATTTTGCGTATCGAGTAAACAAATTTTCCTAATCTTTCTGTTCAAGCGCCATCTAC,1.16 RPM ratio (pull-down/input)
21,GATGATTGTTCTCCCAGCTGATGAATTCTTGCATTCGAGTAAACAAATTTTCCTAATCTTTCTGTTCAAGCGCCATCTAC,1.24 RPM ratio (pull-down/input)

row,Sequence,binding signal
1,GATGATTGTTCTCCCAGCTGATGAATTATTGAGCTCGAGTAAACAAATTTTCCTAATCTTTCTGTTCAAGCGCCATCTAC,0.941 RPM ratio (pull-down/input)
2,GATGATTGTTCTCCCAGCTGATGAATTGTAGCTTTCGAGTAAACAAATTTTCCTAATCTTTCTGTTCAAGCGCCATCTAC,1.05 RPM ratio (pull-down/input)
3,GATGATTGTTCTCCCAGCTGATGAATTCAGATATTCGAGTAAACAAATTTTCCTAATCTTTCTGTTCAAGCGCCATCTAC,1.01 RPM ratio (pull-down/input)
4,GATGATTGTTCTCCCAGCTGATGAATTTTACGAGTCGAGTAAACAAATTTTCCTAATCTTTCTGTTCAAGCGCCATCTAC,0.847 RPM ratio (pull-down/input)
5,GATGATTGTTCTCCCAGCTGATGAATTTGTGACATCGAGTAAACAAATTTTCCTAATCTTTCTGTTCAAGCGCCATCTAC,1.39 RPM ratio (pull-down/input)
6,GATGATTGTTCTCCCAGCTGATGAATTTTATCGATCGAGTAAACAAATTTTCCTAATCTTTCTGTTCAAGCGCCATCTAC,0.946 RPM ratio (pull-down/input)
7,GATGATTGTTCTCCCAGCTGATGAATTGAGCGTTTCGAGTAAACAAATTTTCCTAATCTTTCTGTTCAAGCGCCATCTAC,0.97 RPM ratio (pull-down/input)
8,GATGATTGTTCTCCCAGCTGATGAATTATAAGTGTCGAGTAAACAAATTTTCCTAATCTTTCTGTTCAAGCGCCATCTAC,1.11 RPM ratio (pull-down/input)
9,GATGATTGTTCTCCCAGCTGATGAATTGGATTGGTCGAGTAAACAAATTTTCCTAATCTTTCTGTTCAAGCGCCATCTAC,0.827 RPM ratio (pull-down/input)
10,GATGATTGTTCTCCCAGCTGATGAATTTTCTCGTTCGAGTAAACAAATTTTCCTAATCTTTCTGTTCAAGCGCCATCTAC,0.939 RPM ratio (pull-down/input)
11,GATGATTGTTCTCCCAGCTGATGAATTGGTATGGTCGAGTAAACAAATTTTCCTAATCTTTCTGTTCAAGCGCCATCTAC,1.02 RPM ratio (pull-down/input)
12,GATGATTGTTCTCCCAGCTGATGAATTAATAACATCGAGTAAACAAATTTTCCTAATCTTTCTGTTCAAGCGCCATCTAC,2.02 RPM ratio (pull-down/input)
13,GATGATTGTTCTCCCAGCTGATGAATTATCTGCCTCGAGTAAACAAATTTTCCTAATCTTTCTGTTCAAGCGCCATCTAC,0.974 RPM ratio (pull-down/input)
14,GATGATTGTTCTCCCAGCTGATGAATTATCCGCCTCGAGTAAACAAATTTTCCTAATCTTTCTGTTCAAGCGCCATCTAC,0.957 RPM ratio (pull-down/input)
15,GATGATTGTTCTCCCAGCTGATGAATTGTGCCAGTCGAGTAAACAAATTTTCCTAATCTTTCTGTTCAAGCGCCATCTAC,0.926 RPM ratio (pull-down/input)
16,GATGATTGTTCTCCCAGCTGATGAATTATGGTCGTCGAGTAAACAAATTTTCCTAATCTTTCTGTTCAAGCGCCATCTAC,0.971 RPM ratio (pull-down/input)
17,GATGATTGTTCTCCCAGCTGATGAATTGCGTCTCTCGAGTAAACAAATTTTCCTAATCTTTCTGTTCAAGCGCCATCTAC,1.01 RPM ratio (pull-down/input)
18,GATGATTGTTCTCCCAGCTGATGAATTTGCACTCTCGAGTAAACAAATTTTCCTAATCTTTCTGTTCAAGCGCCATCTAC,1.04 RPM ratio (pull-down/input)
19,GATGATTGTTCTCCCAGCTGATGAATTTACCTGTTCGAGTAAACAAATTTTCCTAATCTTTCTGTTCAAGCGCCATCTAC,1.25 RPM ratio (pull-down/input)
20,GATGATTGTTCTCCCAGCTGATGAATTTAATAAATCGAGTAAACAAATTTTCCTAATCTTTCTGTTCAAGCGCCATCTAC,1.25 RPM ratio (pull-down/input)
21,GATGATTGTTCTCCCAGCTGATGAATTATTTCTATCGAGTAAACAAATTTTCCTAATCTTTCTGTTCAAGCGCCATCTAC,1.13 RPM ratio (pull-down/input)

row,Sequence,binding signal
1,GATGATTGTTCTCCCAGCTGATGAATTCTGTGCTTCGAGTAAACAAATTTTCCTAATCTTTCTGTTCAAGCGCCATCTAC,0.975 RPM ratio (pull-down/input)
2,GATGATTGTTCTCCCAGCTGATGAATTTGAGAACTCGAGTAAACAAATTTTCCTAATCTTTCTGTTCAAGCGCCATCTAC,0.767 RPM ratio (pull-down/input)
3,GATGATTGTTCTCCCAGCTGATGAATTAGACAGTTCGAGTAAACAAATTTTCCTAATCTTTCTGTTCAAGCGCCATCTAC,0.913 RPM ratio (pull-down/input)
4,GATGATTGTTCTCCCAGCTGATGAATTTTATAGTTCGAGTAAACAAATTTTCCTAATCTTTCTGTTCAAGCGCCATCTAC,0.932 RPM ratio (pull-down/input)
5,GATGATTGTTCTCCCAGCTGATGAATTATCGACTTCGAGTAAACAAATTTTCCTAATCTTTCTGTTCAAGCGCCATCTAC,0.945 RPM ratio (pull-down/input)
6,GATGATTGTTCTCCCAGCTGATGAATTGAGCCCTTCGAGTAAACAAATTTTCCTAATCTTTCTGTTCAAGCGCCATCTAC,0.844 RPM ratio (pull-down/input)
7,GATGATTGTTCTCCCAGCTGATGAATTTCGTTTGTCGAGTAAACAAATTTTCCTAATCTTTCTGTTCAAGCGCCATCTAC,1.18 RPM ratio (pull-down/input)
8,GATGATTGTTCTCCCAGCTGATGAATTCTAGTTATCGAGTAAACAAATTTTCCTAATCTTTCTGTTCAAGCGCCATCTAC,1.11 RPM ratio (pull-down/input)
9,GATGATTGTTCTCCCAGCTGATGAATTGACTAGCTCGAGTAAACAAATTTTCCTAATCTTTCTGTTCAAGCGCCATCTAC,0.953 RPM ratio (pull-down/input)
10,GATGATTGTTCTCCCAGCTGATGAATTGATCTACTCGAGTAAACAAATTTTCCTAATCTTTCTGTTCAAGCGCCATCTAC,1.03 RPM ratio (pull-down/input)
11,GATGATTGTTCTCCCAGCTGATGAATTGGCGGCTTCGAGTAAACAAATTTTCCTAATCTTTCTGTTCAAGCGCCATCTAC,0.752 RPM ratio (pull-down/input)
12,GATGATTGTTCTCCCAGCTGATGAATTCGCATAATCGAGTAAACAAATTTTCCTAATCTTTCTGTTCAAGCGCCATCTAC,1.22 RPM ratio (pull-down/input)
13,GATGATTGTTCTCCCAGCTGATGAATTACCAGCCTCGAGTAAACAAATTTTCCTAATCTTTCTGTTCAAGCGCCATCTAC,0.937 RPM ratio (pull-down/input)
14,GATGATTGTTCTCCCAGCTGATGAATTCAGCTTCTCGAGTAAACAAATTTTCCTAATCTTTCTGTTCAAGCGCCATCTAC,0.851 RPM ratio (pull-down/input)
15,GATGATTGTTCTCCCAGCTGATGAATTGACGCTGTCGAGTAAACAAATTTTCCTAATCTTTCTGTTCAAGCGCCATCTAC,1.05 RPM ratio (pull-down/input)
16,GATGATTGTTCTCCCAGCTGATGAATTAACCCGGTCGAGTAAACAAATTTTCCTAATCTTTCTGTTCAAGCGCCATCTAC,0.782 RPM ratio (pull-down/input)
17,GATGATTGTTCTCCCAGCTGATGAATTAAGGTAATCGAGTAAACAAATTTTCCTAATCTTTCTGTTCAAGCGCCATCTAC,1.47 RPM ratio (pull-down/input)
18,GATGATTGTTCTCCCAGCTGATGAATTGATCGGTTCGAGTAAACAAATTTTCCTAATCTTTCTGTTCAAGCGCCATCTAC,0.898 RPM ratio (pull-down/input)
19,GATGATTGTTCTCCCAGCTGATGAATTCAGTTCGTCGAGTAAACAAATTTTCCTAATCTTTCTGTTCAAGCGCCATCTAC,0.848 RPM ratio (pull-down/input)
20,GATGATTGTTCTCCCAGCTGATGAATTCTAGATATCGAGTAAACAAATTTTCCTAATCTTTCTGTTCAAGCGCCATCTAC,0.945 RPM ratio (pull-down/input)
21,GATGATTGTTCTCCCAGCTGATGAATTGTTTCGTTCGAGTAAACAAATTTTCCTAATCTTTCTGTTCAAGCGCCATCTAC,1.27 RPM ratio (pull-down/input)
